# Measured values reported in PubChem BioAssay (Tox21).
# “And” between values parts separate entries of the source, which are not always exact repeats. Identical values can stand only once. The inconclusive results got no clear call from the source; some entries with a clear call stand among them for comparison. For some of these results: Potencies of inconclusive entries are doubtful fits and often do not repeat. Some compounds were tested as several samples or in several runs, with calls that do not always agree. The source made the active and inactive calls. Unless noted, the call rests on the fitted dose curve.
# What was measured:
# [1] = molecular target: Bile acid receptor (Homo sapiens) (UniProt Q96RI1); experiment: qHTS assay to identify small molecule agonists of the farnesoid-X-receptor (FXR) signaling pathway (AID 743220; active means well fitted activation curve with a large enough effect in the signal ratio in the repeat runs, not every such curve was filed as active; inconclusive means weak or mixed curves, or effect the other way; the % refers to the signal ratio); conditions: HEK293T FXR-UAS-bla, beta-lactamase FRET ratio, 16 h; activation: at 62.6 µM (top of the series) unless noted
# How it was run: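 Beta-lactamase reporter under UAS control in GeneBLAzer FXR HEK 293T cells (5000/well) measured with LiveBLAzer FRET substrate after 2 h at room temperature. Compound exposure lasted 16 h at 37C.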
# [2] = qHTS assay to identify small molecule antagonists of the farnesoid-X-receptor (FXR) signaling pathway - cell viability counter screen (AID 743221; active means well fitted cell-killing curve with a large enough effect in the repeat runs, not every such curve was filed as active; inconclusive means weak or mixed curves, or effect the other way; inactive means no such curve, though single readings can be large or run the other way; further: nearly all actives have a fitted effect of over 50% in size; on activity change, negative = cytotoxicity: on the % scale 0 is the no-effect control and ±100 the full control effect); conditions: FXR-bla HEK293T viability, CellTiter-Glo luminescence, 16 h; activity change, negative = cytotoxicity: at 62.6 µM (top of the series) unless noted
# How it was run: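 Luminescence from CellTiter-Glo measures cytotoxicity in GeneBLAzer FXR-UAS-bla HEK 293T cells. Cells were exposed to compounds with 50 uM chenodeoxycholic acid (final) for 16 h at 37 C, in wells also used for the reporter readout.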
# [3] = molecular target: Vitamin D3 receptor (Homo sapiens) (UniProt P11473); experiment: qHTS assay to identify small molecule agonists of the vitamin D receptor (VDR) signaling pathway (AID 743222); conditions: HEK293T VDR-UAS-bla, beta-lactamase FRET ratio, 16 h; activation: at 63.5 µM (top of the series) unless noted; on activation: on the % scale 0 is the no-effect control and ±100 the full control effect
# How it was run: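 VDR-bla cells, 2,000/well; 4 h preincubation 37C; cpd (DMSO) 16 h; LiveBLAzer B/G substrate 2 h RT; fluorescence intensity read.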
# [4] = molecular target: Vitamin D3 receptor (Homo sapiens) (UniProt P11473); experiment: qHTS assay to identify small molecule antagonists of the vitamin D receptor (VDR) signaling pathway (AID 743223; active means well fitted inhibition curve with a large enough effect in the signal ratio in the repeat runs, not every such curve was filed as active; inconclusive means weak or mixed curves, or effect the other way; inactive means no such curve, though single readings can be large or run the other way; the % refers to the signal ratio; on activity change, negative = inhibition: on the % scale 0 is the no-effect control and ±100 the full control effect); conditions: VDR-UAS-bla HEK293T, beta-lactamase FRET ratio, 16 h; activity change, negative = inhibition: at 61 µM (top of the series) unless noted
# How it was run: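 Antagonist mode uses 1alpha,25-dihydroxyvitamin D3 at 3 nM final as stimulus. VDR-bla cells receive compounds in DMSO, incubate 16 h at 37C, then a beta-lactamase FRET substrate for 2 h at room temperature before fluorescence measurement.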
# [5] = qHTS assay to identify small molecule antagonists of the vitamin D receptor (VDR) signaling pathway - cell viability counter screen (AID 743225; active means well fitted cell-killing curve with a large enough effect in the repeat runs; inconclusive means weak or mixed curves, or effect the other way; inactive means no such curve, though single readings can be large or run the other way; further: nearly all actives have a fitted effect of over 50% in size); conditions: VDR-bla HEK293T viability, CellTiter-Glo luminescence, 16 h; viability change, negative = cytotoxic: at 61 µM (top of the series)
# How it was run: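 Read-out: CellTiter-Glo luminescence measured 30 min after reagent addition at room temperature. Cells were VDR-bla HEK 293T exposed 16 h at 37C, 5% CO2, to compound with 3 nM final calcitriol agonist.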
# [6] = qHTS assay to identify small molecule agonists of the NFkB signaling pathway - cell viability counter screen (AID 1159515); conditions: NFkB-bla ME-180 viability, CellTiter-Glo luminescence, 5 h; series mostly up to 61 µM; further: nearly all actives have a fitted effect of over 55% in size
# How it was run: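 Luminescence from CellTiter-Glo (30 min, room temperature) gives viability, measured in the same wells as the beta-lactamase reporter read. Cells were NFkB-bla ME-180, 2,000 per well, treated 5 hr with compounds.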
# [7] = qHTS assay to identify small molecule agonists of the endoplasmic reticulum stress response signaling pathway (AID 1159516; active means well fitted activation curve with a large enough effect in the signal ratio in the repeat runs, not every such curve was filed as active; inconclusive means weak or mixed curves, or effect the other way; the % refers to the signal ratio; on activation: on the % scale 0 is the no-effect control and ±100 the full control effect); conditions: ESRE-bla HeLa, ER stress beta-lactamase reporter, 5 h; activation: at 61 µM (top of the series) unless noted
# How it was run: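 Read-out is beta-lactamase cleavage of a FRET substrate (405 nm excitation; 460 and 530 nm emissions) in ESRE-bla HeLa cells after a 5 hr compound exposure at 37 C. Substrate incubation ran 2 hr at room temperature.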
# [8] = qHTS assay to identify small molecule agonists of the farnesoid-X-receptor (FXR) signaling pathway - cell viability counter screen (AID 743218; active means well fitted cell-killing curve with a large enough effect in the repeat runs; inconclusive means weak or mixed curves, or effect the other way; inactive means no such curve, though single readings can be large or run the other way; further: nearly all actives have a fitted effect of over 45% in size); conditions: FXR-bla HEK293T viability, CellTiter-Glo luminescence, 16 h; viability change, negative = cytotoxic: at 62.6 µM (top of the series) unless noted
# How it was run: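 HEK 293T FXR-bla cells; 5 h pre-incubation, 16 h compound exposure at 37 C; LiveBLAzer substrate 2 h RT, then CellTiter-Glo 30 min RT, luminescence.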
# [9] = qHTS assay to identify small molecule agonists of the vitamin D receptor (VDR) signaling pathway - cell viability counter screen (AID 743224; active means well fitted cell-killing curve with a large enough effect in the repeat runs; inconclusive means weak or mixed curves, or effect the other way; inactive means no such curve, though single readings can be large or run the other way; further: nearly all actives have a fitted effect of over 50% in size); conditions: VDR-bla HEK293T viability, CellTiter-Glo luminescence, 16 h; series mostly up to 62.6 µM
# How it was run: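 Luminescence from CellTiter-Glo, read after 30 min at room temperature, reports viability of VDR-bla cells treated with compounds for 16 h at 37C in the wells used for the beta-lactamase FRET read.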
# Potency means the concentration at half of the fitted maximal effect; tags describe the fitted curve by direction and shape or compound fluorescence and quenching.
# Chain of UniProt P11473 (P11473 whole entry, looked up): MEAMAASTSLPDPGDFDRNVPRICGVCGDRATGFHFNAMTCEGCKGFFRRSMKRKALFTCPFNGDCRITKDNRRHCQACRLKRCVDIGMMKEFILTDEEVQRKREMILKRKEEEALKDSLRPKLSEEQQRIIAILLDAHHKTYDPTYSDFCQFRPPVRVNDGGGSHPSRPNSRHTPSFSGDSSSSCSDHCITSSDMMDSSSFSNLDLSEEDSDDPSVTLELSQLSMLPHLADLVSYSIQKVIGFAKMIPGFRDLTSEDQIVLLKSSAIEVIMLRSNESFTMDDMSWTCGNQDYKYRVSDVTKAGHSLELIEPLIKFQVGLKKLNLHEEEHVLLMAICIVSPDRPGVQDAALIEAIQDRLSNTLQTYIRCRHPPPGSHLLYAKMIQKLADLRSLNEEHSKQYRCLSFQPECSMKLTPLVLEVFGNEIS
# Chain of UniProt Q96RI1 (Q96RI1 whole entry, looked up): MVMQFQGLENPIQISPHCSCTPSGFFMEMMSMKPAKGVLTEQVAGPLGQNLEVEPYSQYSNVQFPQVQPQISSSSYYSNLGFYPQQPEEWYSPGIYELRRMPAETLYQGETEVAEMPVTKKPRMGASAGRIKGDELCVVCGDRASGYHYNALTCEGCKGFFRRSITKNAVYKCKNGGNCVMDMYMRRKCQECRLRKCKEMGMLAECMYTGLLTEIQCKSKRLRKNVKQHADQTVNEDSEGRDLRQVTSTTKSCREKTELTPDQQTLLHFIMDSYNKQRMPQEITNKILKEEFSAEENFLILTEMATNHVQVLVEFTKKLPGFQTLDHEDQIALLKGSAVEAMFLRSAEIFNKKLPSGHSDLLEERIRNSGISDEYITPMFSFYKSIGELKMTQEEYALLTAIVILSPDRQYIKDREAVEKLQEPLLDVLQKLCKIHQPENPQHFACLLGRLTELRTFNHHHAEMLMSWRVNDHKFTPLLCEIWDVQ
smiles,measurement,setting,value
CCCCCCCCCCCCCCn1cc[n+](C)c1,Potency,[1],"inconclusive: 61.8 µM [cytotoxic, single point] and inconclusive: 61 µM [cytotoxic]"
same,Potency,[2],active: 24.6 µM and active: 54.4 µM
same,Potency,[3],inconclusive: 21.6 µM
same,activation,[3],inconclusive: -2.06% and inconclusive: -13.9%
same,Potency,[4],inconclusive: 21.9 µM [inhibitor] and inconclusive: 21.6 µM and inactive
same,Potency,[5],active: 27.6 µM and active: 43.2 µM
same,Potency,[6],"inconclusive: 55 µM [cytotoxic, single point] and inconclusive: 54.4 µM [cytotoxic, single point]"
same,Potency,[7],"inconclusive: 55 µM [cytotoxic, single point] and inconclusive: 61 µM [cytotoxic, single point] and inconclusive: 27.5 µM [cytotoxic, partial curve]"
CCOC(=O)C(O)(c1ccc(Cl)cc1)c1ccc(Cl)cc1,Potency,[8],active: 24.8 µM
same,Potency,[2],active: 44.1 µM
same,Potency,[3],"inconclusive: 35 µM [falling, partial curve, poor fit]"
same,Potency,[5],active: 11.1 µM and active: 38.9 µM
same,Potency,[6],"inconclusive: 55.5 µM [cytotoxic, single point] and inconclusive: 54.9 µM [cytotoxic, single point]"
O=S1OCC2C(CO1)C1(Cl)C(Cl)=C(Cl)C2(Cl)C1(Cl)Cl (stereo not given),Potency,[9],"inconclusive: 55 µM [cytotoxic, single point] and active: 38.9 µM"
same,Potency,[5],"inconclusive: 61.6 µM [cytotoxic, single point]"
same,Potency,[6],active: 55 µM and inconclusive: 61.6 µM [cytotoxic]
same,Potency,[7],"inconclusive: 55 µM [cytotoxic] and inconclusive: 54.9 µM [cytotoxic, single point]"
COP(=O)(OC)OC(Br)C(Cl)(Cl)Br (stereo not given),Potency,[1],"inconclusive: 61.7 µM [activator, single point] and inconclusive: 49 µM [activator]"
same,"activity change, negative = inhibition",[4],inconclusive: -35.1%
same,Potency,[9],"inconclusive: 55 µM [cytotoxic, single point] and inconclusive: 43.6 µM [cytotoxic, partial curve]"
same,Potency,[6],inactive
Sc1ccccc1,Potency,[9],"inconclusive: 3.89 µM [cytotoxic, full curve, poor fit]"
same,Potency,[5],"inconclusive: 1.1 µM [cytotoxic, single point]"
same,Potency,[6],inactive
same,Potency,[7],inactive
CC(C)(C)CC(C)(C)c1ccc(O)cc1,Potency,[1],inconclusive: 61.4 µM
same,Potency,[4],inconclusive: 25.3 µM and inconclusive: 21.3 µM [inhibitor]
same,Potency,[5],"active: 17.4 µM and inconclusive: 26.8 µM [cytotoxic, single point]"
same,Potency,[6],"active: 21.9 µM and inconclusive: 26.8 µM [cytotoxic, single point]"
same,Potency,[7],inconclusive: 49 µM [cytotoxic]
Cc1cc(OC(=O)N(C)C)nn1C(=O)N(C)C,Potency,[2],inactive
same,Potency,[6],inactive
same,Potency,[7],inactive
O=[N+]([O-])c1ccc(Nc2ccccc2)cc1,Potency,[1],"inconclusive: 38.9 µM [fluorescent, partial curve, poor fit]"
same,activation,[1],inconclusive: 1.75% [at 81.1 µM]
same,Potency,[2],"inconclusive: 87.1 µM [falling, partial curve, poor fit]"
same,Potency,[3],"inconclusive: 24.5 µM [fluorescent, partial curve]"
same,Potency,[5],active: 49 µM
same,Potency,[6],active: 43.6 µM
same,Potency,[7],inconclusive: 61.7 µM
